Laboratory results published in PubChem BioAssay AID1347120 (National Center for Advancing Translational Sciences (NCATS), 2019).
The whole screen tested about 390,000 compounds, of which about 930 (0.24%) were called active. Inconclusive results, whose numbers are uncertain, are shown with a selection of clear calls. The call rests on the fitted dose curve; in most records, active means well fitted activation curve with a large enough effect; inconclusive means small, poorly fitted or top-dose-only effect; inactive means no such curve, though single readings can be large or run the other way. A potency beside an inconclusive call is a rough fit, not a confirmed value.

experiment: qHTS for Suppressors of FUS Proteinopathy: Primary screen using FUS-linked yeast assay; further: nearly all actives have a fitted effect of over 55% in size;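 on growth rescue (activation): plate controls were DMSO vehicle for no effect and reference control for full effect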; conditions: S. cerevisiae FUS-expressing, OD600, 24 h; Potency: growth rescue; growth rescue (activation): at 76.6 µM (top of the series)
Procedure, shortened: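 Cultures pregrown in 2.5% raffinose medium are shifted to minimal medium containing 2% galactose to express toxic FUS. Compounds are tested at several concentrations. After 24hr at 30C, growth is quantified at 600 nm absorbance.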
Potency means the concentration at half of the fitted maximal effect; tags describe the fitted curve by direction and shape.

Row | SMILES | Potency | growth rescue (activation)
1 | O=C1CC(c2ccco2)CC(O)=C1C=NCC1NCCc2ccccc21 (stereo not drawn) | inconclusive: 17.8 µM [activator, partial curve, poor fit] | –
2 | Cc1ccccc1NC(=O)c1c(C)[nH]c(=S)c(C#N)c1-c1ccc(Cl)cc1 | inconclusive: 25.1 µM [activator, single point] | –
3 | CC(C)C1C(=O)N(Cc2cn(Cc3ccco3)nn2)CCS(=O)(=O)N1Cc1ccc(-c2ccccc2)cc1 (stereo not drawn) | inconclusive: 28.2 µM [activator, single point] | –
4 | S=C(Nc1ccc(Cl)cc1)c1nc2ccccc2s1 | inactive | –
5 | CCCC/C=C1/[C@H](CC)N(C)C2=N[C@@H](c3ccccc3)CC(=O)N21 | inactive | –
6 | C/C=C(/C)C(=O)OC1c2c(ccc3ccc(=O)oc23)OC(C)(C)C1OC(=O)/C(C)=C\C (stereo not drawn) | inconclusive: 31.6 µM [activator, single point] | –
7 | CCC(C)c1ccc(S(=O)(=O)N2CCN(CC(O)CN3CCOCC3)CC2)cc1 (stereo not drawn) | inactive | –
8 | COc1ccc(-c2ccc(=O)n(Cc3cccc(Cl)c3)n2)cc1 | inconclusive: 50.1 µM [activator, single point] | –
9 | Cc1ccc(CNC(=O)c2oc3c(c2C)-c2nn(Cc4ccc(Cl)cc4)cc2CC3)cc1 | inconclusive: 20 µM [activator, partial curve, poor fit] | –
10 | CCN(CC)S(=O)(=O)c1ccc(NC(=O)NCc2noc3ccc(C)cc23)cc1 | inconclusive: 39.8 µM [activator, partial curve, poor fit] | –
11 | NCc1nc2cccnc2n1Cc1ccccc1Cl | inactive | –
12 | O=C(CSc1nnnn1-c1cccc2c1CCCC2)N1CCCC1 | inactive | –
13 | COc1ccccc1C(=O)CC(=O)C(=O)Nc1cccc([N+](=O)[O-])c1C | inconclusive: 7.94 µM [activator, partial curve, poor fit] | –
14 | Cc1ccc(C2CCN(C(=O)c3cnn(-c4cccc(Cl)c4)c3C3CCN(C(=O)OC(C)(C)C)CC3)C2)cc1 (stereo not drawn) | inconclusive: 3.55 µM [activator, full curve] | –
15 | COc1cc(/C=C/[N+](=O)[O-])ccc1OC(=O)/C=C/c1ccc(F)cc1 | inactive | –
16 | COc1cc(-c2noc(C)c2C#Cc2ccsc2)cc(OC)c1OC | inconclusive: 25.1 µM [activator, partial curve, poor fit] | –
17 | COc1ccc(OC)c(NC(=O)c2cc(-c3ccc(Cl)s3)nc3ccccc23)c1 | inactive | –
18 | Cc1cccc(-c2nnc(SCc3cc(=O)c4cccc(Cl)c4[nH]3)n2C)c1 | inconclusive: 20 µM [activator, partial curve] | –
19 | COc1cccc2c1ncc1c(-c3ccc(C)cc3)nn(-c3cccc([N+](=O)[O-])c3)c12 | inactive | –
20 | CC1CCCN(S(=O)(=O)c2ccc(NC(=O)c3cccc(-n4cnnn4)c3)cc2)C1 (stereo not drawn) | inconclusive: 14.1 µM [activator, partial curve] | –
21 | Cc1cccc(N2CCN(C(=S)Nc3ccc4nc(N5CCN(C)CC5)cc(C)c4c3)CC2C)c1 (stereo not drawn) | inconclusive: 4.47 µM [activator, full curve, poor fit] | –

Row | SMILES | Potency | growth rescue (activation)
22 | CCCCn1c(SCC(=O)Nc2sc3c(c2C(N)=O)CCC3)nnc1-c1ccccc1 | inconclusive: 44.7 µM [activator, partial curve, poor fit] | –
23 | C[C@H](CO)N1C[C@H](C)[C@@H](CN(C)C(=O)Nc2ccc(C(F)(F)F)cc2)Oc2ccc(NS(=O)(=O)c3cccs3)cc2C1=O | inconclusive: 31.6 µM [activator, single point] | –
24 | COC(=O)[C@@]12C[C@@H](CC(=O)NCCCN3CCCC3=O)C(=O)N(Cc3cccc4ccccc34)C1=CCC(C)(C)C2 | inconclusive: 17.8 µM [activator, single point] | –
25 | COc1ccc(C2C(C(N)=O)=C(C)Nc3nc(SCc4ccccc4Cl)nn32)cc1OC (stereo not drawn) | inconclusive: 50.1 µM [activator, single point] | –
26 | O=C(c1ccc(CSCc2ccccc2F)o1)N1CCN(c2ccc(N3CCOCC3)nn2)CC1 | inactive | –
27 | CCCCCCCNC(=O)C1(CC2CC(c3ccc(Cl)cc3)=NO2)CCN(C(=O)CCCCCBr)CC1 (stereo not drawn) | active: 31.6 µM | –
28 | O=C(c1ccc(N2CCN(C(=O)c3ccccc3)CC2)cc1)c1cccc(F)c1 | inconclusive: 35.5 µM [activator, partial curve] | –
29 | Cn1c(=O)c2c(ncn2CC(=O)NC2CCCCC2)n(C)c1=O | inactive | –
30 | Cc1ccc(C2=NS(=O)(=O)N(C)C(C(=O)NC(C)c3ccccc3)=C2)cc1 (stereo not drawn) | inconclusive: 25.1 µM [activator, single point] | –
31 | Cc1cc(NC(=O)CSc2nnc(-c3ccccc3F)n2N)no1 | inactive | –
32 | O=C(N/N=C/c1ccc(O)c(O)c1O)/C(=C/c1ccc([N+](=O)[O-])cc1)NC(=O)c1ccccc1 | inconclusive: 11.2 µM [activator, partial curve, poor fit] | –
33 | COc1ccc(C(=O)NCCS(=O)(=O)N2CCCCCC2)cc1 | inactive | –
34 | C=CCn1c(SCC(=O)Nc2ccc(CCCC)cc2)nnc1-c1ccc(Cl)cc1 | inactive | –
35 | Cc1nn(C(C)C(=O)Nc2ccc(C(C)C)cc2)c(=O)c2c1sc1ccccc12 (stereo not drawn) | inactive | –
36 | CCC1Oc2ccccc2N(CC(=O)Nc2ccc(OC)cc2OC)C1=O (stereo not drawn) | – | inconclusive: 70.3% [activator]
37 | Cc1ccc(NC(=O)C2(NC(=O)c3cccc(N4C(=O)CSC4c4ccccc4)c3)CCCCC2)cc1 (stereo not drawn) | active: 28.2 µM | –
38 | O=C1CC(=C2c3ccccc3-c3ccccc32)C(=O)N1CCN1CCN(c2cccc(Cl)c2)CC1 | inconclusive: 28.2 µM [activator, partial curve, poor fit] | –
39 | CCCCNC(=O)c1cnc2n(c1=O)CCS2 | inconclusive: 8.91 µM [activator, partial curve, poor fit] | –
40 | CC(C)CNc1ncnc2[nH]ncc12 | inactive | –
41 | Cc1cccc(N2CCN(C(=O)c3cccs3)CC2)c1C | inactive | –
42 | CC(C)(C)C(=O)[C@@H]1[C@@H]2C(=O)N(C3CCCCC3)C(=O)[C@@H]2[C@H]2c3ccccc3C=CN12 | inconclusive: 35.5 µM [activator, partial curve, poor fit] | –

Row | SMILES | Potency | growth rescue (activation)
43 | CCCCn1c(=N)c(S(=O)(=O)c2ccc(C)cc2)cc2c(=O)n3cc(C)ccc3nc21 | inactive | –
44 | N#Cc1c(N)sc(=S)c2c1CCCCC2 | inconclusive: 44.7 µM [activator, partial curve, poor fit] | –
45 | CC(=O)N1CCc2c(sc3nc(SCC(C)C)n(-c4ccc(C)c(Cl)c4)c(=O)c23)C1 | inconclusive: 39.8 µM [activator, single point] | –
46 | Cc1ccc(NC(=O)CSc2nc3ccccc3nc2N2CCOCC2)c(C)c1 | inactive | –
47 | CCOc1ccc(CCNC(=O)CS(=O)Cc2nc(-c3ccc(OC)c(OC)c3)oc2C)cc1OCC (stereo not drawn) | inconclusive: 28.2 µM [activator, single point] | –
48 | N#Cc1ccc(/C=C2\CC3(OC(=O)C4CCCCC4)CCCN2C3)cc1 (stereo not drawn) | inactive | –
49 | CC(=O)c1cccc(N2Cc3ccccc3C2=NC(=O)CCl)c1 | inconclusive: 28.2 µM [activator, partial curve, poor fit] | –
50 | CCCCCn1nc(C(=O)OCc2nc(N)nc(Nc3ccccc3)n2)c2ccccc2c1=O | inconclusive: 31.6 µM [activator, single point] | –
51 | CC(=O)N1CCc2cc(NS(=O)(=O)c3cccs3)ccc21 | inconclusive: 7.94 µM [activator, partial curve] | –
52 | Cc1c(NC(=O)C2CCCN2S(=O)(=O)c2ccc(Cl)cc2)c(=O)n(-c2ccccc2)n1C (stereo not drawn) | inconclusive: 25.1 µM [activator, partial curve] | –
53 | O=C(CN1C(=O)NC2(CCc3ccccc32)C1=O)c1c[nH]c2ccccc12 (stereo not drawn) | inconclusive: 35.5 µM [activator, partial curve, poor fit] | –
54 | CCC(C)Sc1cc(-c2nc3ccccn3c2NC2CCCCC2)ccc1OC (stereo not drawn) | inconclusive: 25.1 µM [activator, single point] | –
55 | Cc1ccc(CCNC(=O)C2CCCN(S(=O)(=O)c3c(C)noc3/C=C/N(C)C)C2)cc1 (stereo not drawn) | active: 20 µM | –
56 | COC(=O)c1ccc(C2C(C(=O)c3ccc(C)o3)=C(O)C(=O)N2c2cc(C)on2)cc1 (stereo not drawn) | inconclusive: 22.4 µM [activator, partial curve, poor fit] | –
57 | CCCC[N+](C)(C)CCC(=O)NC(C)(C)CS(=O)(=O)[O-] | inconclusive: 5.62 µM [activator, single point] | –
58 | Cn1cnnc1SCC(=O)Nc1ccc2nc(SCc3ccccc3)sc2c1 | inconclusive: 35.5 µM [activator, partial curve, poor fit] | –
59 | Cc1cccc(N2CCN(C(=O)C3CCN(C(=O)c4cc5sccc5n4C)CC3)CC2)c1C | inconclusive: 35.5 µM [activator, single point] | –
60 | O=C(Cn1c(SCC(=O)NC2CCCC2)nnc1-c1ccncc1)Nc1ccc2c(c1)OCO2 | inconclusive: 31.6 µM [activator, single point] | –
61 | COC(=O)C1=C(C(=O)OC)[C@@H]2N(Cc3ccccc3)c3ccccc3[C@@]23C[C@@H](C(=O)OC)N(C(=O)c2cccs2)C3=N1 | inconclusive: 35.5 µM [activator, single point] | –
62 | COc1ccc(-n2c(Cc3cccn3C)nnc2SCC(=O)Nc2ccc(F)cc2F)cc1 | inconclusive: 7.08 µM [activator, full curve, poor fit] | –
63 | CCCCC(=O)Nc1cc(OC)c(NC(=S)Nc2ccc(OC)cc2)cc1OC | inconclusive: 4.47 µM [activator, full curve] | –
